{"source": "the antibiotic and cytotoxicity screens of Wong et al. (2023)", "key": {"[1]": {"test_system": "HSkMC (human skeletal muscle cells)", "assay": "cytotoxicity call (relative viability < 0.9)", "details": "10 µM"}, "[2]": {"test_system": "HepG2", "assay": "cytotoxicity call (relative viability < 0.9)", "details": "10 µM"}, "[3]": {"test_system": "S. aureus RN4220", "assay": "growth inhibition call (relative growth <= 0.2)", "details": "50 µM"}}, "note": "The list shows a part of the results."}
{"smiles": "C[C@@H]1CN([C@@H](C)CO)C(=O)Cc2cc(NS(=O)(=O)c3cccs3)ccc2O[C@@H]1CN(C)C(=O)Nc1cccc2ccccc12", "values": [{"measurement": "cytotoxicity call", "setting": "[1]", "value": "inactive"}, {"measurement": "cytotoxicity call", "setting": "[2]", "value": "inactive"}, {"measurement": "growth inhibition call", "setting": "[3]", "value": "inactive"}]}
{"smiles": "C[C@@H]1CCCCO[C@H](CN(C)S(=O)(=O)c2ccccc2)[C@H](C)CN([C@@H](C)CO)C(=O)c2cc(NC(=O)Nc3ccc(C(F)(F)F)cc3)ccc2O1", "values": [{"measurement": "cytotoxicity call", "setting": "[1]", "value": "inactive"}, {"measurement": "cytotoxicity call", "setting": "[2]", "value": "active"}, {"measurement": "growth inhibition call", "setting": "[3]", "value": "inactive"}]}
{"smiles": "Cc1noc(C)c1S(=O)(=O)N(C)C[C@H]1Oc2ccc(NC(=O)Cc3ccccc3)cc2CC(=O)N([C@H](C)CO)C[C@H]1C", "values": [{"measurement": "cytotoxicity call", "setting": "[1]", "value": "inactive"}, {"measurement": "cytotoxicity call", "setting": "[2]", "value": "inactive"}, {"measurement": "growth inhibition call", "setting": "[3]", "value": "inactive"}]}
{"smiles": "C=CCN(CCCC)C(=O)[C@H]1N(C(C)(C)CO)C(=O)[C@H]2[C@H](C(=O)O)[C@@H]3C=C[C@@]21O3", "values": [{"measurement": "cytotoxicity call", "setting": "[1]", "value": "inactive"}, {"measurement": "cytotoxicity call", "setting": "[2]", "value": "inactive"}, {"measurement": "growth inhibition call", "setting": "[3]", "value": "inactive"}]}
{"smiles": "Cc1noc(C)c1S(=O)(=O)N(C)C[C@@H]1Oc2ccc(NC(=O)NC(C)C)cc2CC(=O)N([C@@H](C)CO)C[C@@H]1C", "values": [{"measurement": "cytotoxicity call", "setting": "[1]", "value": "inactive"}, {"measurement": "cytotoxicity call", "setting": "[2]", "value": "inactive"}, {"measurement": "growth inhibition call", "setting": "[3]", "value": "inactive"}]}
{"smiles": "C[C@@H]1CCCCO[C@H](CN(C)S(=O)(=O)c2ccc(F)cc2)[C@@H](C)CN([C@H](C)CO)C(=O)c2cc(NC(=O)Nc3ccc(C(F)(F)F)cc3)ccc2O1", "values": [{"measurement": "cytotoxicity call", "setting": "[1]", "value": "inactive"}, {"measurement": "cytotoxicity call", "setting": "[2]", "value": "active"}, {"measurement": "growth inhibition call", "setting": "[3]", "value": "inactive"}]}
{"smiles": "CCc1c(C)c2cc3c(-c4ccccc4)coc3cc2oc1=O", "values": [{"measurement": "cytotoxicity call", "setting": "[1]", "value": "inactive"}, {"measurement": "cytotoxicity call", "setting": "[2]", "value": "inactive"}, {"measurement": "growth inhibition call", "setting": "[3]", "value": "inactive"}]}
{"smiles": "C[C@H]1CN([C@@H](C)CO)S(=O)(=O)c2ccc(-c3cccc(C#N)c3)cc2O[C@H]1CN(C)C(=O)c1cccnc1", "values": [{"measurement": "cytotoxicity call", "setting": "[1]", "value": "inactive"}, {"measurement": "cytotoxicity call", "setting": "[2]", "value": "inactive"}, {"measurement": "growth inhibition call", "setting": "[3]", "value": "inactive"}]}
{"smiles": "CC(C)NC(=O)Nc1ccc2c(c1)C(=O)N([C@H](C)CO)C[C@H](C)[C@@H](CN(C)S(C)(=O)=O)OCCCC[C@H](C)O2", "values": [{"measurement": "cytotoxicity call", "setting": "[1]", "value": "inactive"}, {"measurement": "cytotoxicity call", "setting": "[2]", "value": "inactive"}, {"measurement": "growth inhibition call", "setting": "[3]", "value": "inactive"}]}
{"smiles": "CO[C@@H](CCO)[C@@H](O)c1ccc(O)c(F)c1", "values": [{"measurement": "cytotoxicity call", "setting": "[1]", "value": "inactive"}, {"measurement": "cytotoxicity call", "setting": "[2]", "value": "inactive"}, {"measurement": "growth inhibition call", "setting": "[3]", "value": "inactive"}]}
{"smiles": "CCOC(=O)CCCCCC(=O)Nc1ccc2c(c1)C(=O)N([C@@H](C)CO)C[C@H](C)[C@H](CN(C)S(C)(=O)=O)O2", "values": [{"measurement": "cytotoxicity call", "setting": "[1]", "value": "inactive"}, {"measurement": "cytotoxicity call", "setting": "[2]", "value": "inactive"}, {"measurement": "growth inhibition call", "setting": "[3]", "value": "inactive"}]}
{"smiles": "Cc1noc(C)c1S(=O)(=O)Nc1ccc2c(c1)C(=O)N([C@H](C)CO)C[C@@H](C)[C@@H](CN(C)C(=O)NC1CCCCC1)O2", "values": [{"measurement": "cytotoxicity call", "setting": "[1]", "value": "inactive"}, {"measurement": "cytotoxicity call", "setting": "[2]", "value": "inactive"}, {"measurement": "growth inhibition call", "setting": "[3]", "value": "inactive"}]}
{"smiles": "COc1ccc(S(=O)(=O)N(C)C[C@@H]2Oc3ccc(NC(=O)CCCN(C)C)cc3CC(=O)N([C@H](C)CO)C[C@@H]2C)cc1", "values": [{"measurement": "cytotoxicity call", "setting": "[1]", "value": "inactive"}, {"measurement": "cytotoxicity call", "setting": "[2]", "value": "inactive"}, {"measurement": "growth inhibition call", "setting": "[3]", "value": "inactive"}]}
{"smiles": "Cc1ccc(S(=O)(=O)Nc2ccc3c(c2)C(=O)N([C@@H](C)CO)C[C@@H](C)[C@H](CN(C)Cc2ccc(Cl)c(Cl)c2)O3)cc1", "values": [{"measurement": "cytotoxicity call", "setting": "[1]", "value": "inactive"}, {"measurement": "cytotoxicity call", "setting": "[2]", "value": "inactive"}, {"measurement": "growth inhibition call", "setting": "[3]", "value": "inactive"}]}
{"smiles": "C[C@H]1CN([C@@H](C)CO)C(=O)c2cc(NC(=O)Nc3ccccc3)ccc2O[C@H]1CN(C)Cc1ccc(C(F)(F)F)cc1", "values": [{"measurement": "cytotoxicity call", "setting": "[1]", "value": "inactive"}, {"measurement": "cytotoxicity call", "setting": "[2]", "value": "inactive"}, {"measurement": "growth inhibition call", "setting": "[3]", "value": "inactive"}]}
{"smiles": "Cc1ccc(S(=O)(=O)Nc2ccc3c(c2)C(=O)N([C@H](C)CO)C[C@@H](C)[C@@H](CN(C)Cc2ccc4c(c2)OCO4)OCCCC[C@H](C)O3)cc1", "values": [{"measurement": "cytotoxicity call", "setting": "[1]", "value": "inactive"}, {"measurement": "cytotoxicity call", "setting": "[2]", "value": "inactive"}, {"measurement": "growth inhibition call", "setting": "[3]", "value": "inactive"}]}
{"smiles": "C[C@H](CO)N1C[C@H](C)[C@H](CN(C)CC2CCCCC2)Oc2ccc(NC(=O)CCN3CCOCC3)cc2CC1=O", "values": [{"measurement": "cytotoxicity call", "setting": "[1]", "value": "inactive"}, {"measurement": "cytotoxicity call", "setting": "[2]", "value": "inactive"}, {"measurement": "growth inhibition call", "setting": "[3]", "value": "inactive"}]}
{"smiles": "CN(C)Cc1cn(CC[C@H]2CC[C@@H](NS(=O)(=O)c3ccccc3)[C@@H](CO)O2)nn1", "values": [{"measurement": "cytotoxicity call", "setting": "[1]", "value": "inactive"}, {"measurement": "cytotoxicity call", "setting": "[2]", "value": "inactive"}, {"measurement": "growth inhibition call", "setting": "[3]", "value": "inactive"}]}
{"smiles": "CO[C@@H](CN(C)C(=O)Nc1ccc(C(F)(F)F)cc1)[C@H](C)CN(Cc1ccccc1Cl)[C@H](C)CO", "values": [{"measurement": "cytotoxicity call", "setting": "[1]", "value": "inactive"}, {"measurement": "cytotoxicity call", "setting": "[2]", "value": "inactive"}, {"measurement": "growth inhibition call", "setting": "[3]", "value": "inactive"}]}
{"smiles": "C[C@@H]1CN([C@H](C)CO)S(=O)(=O)c2ccc(C#CC(C)(C)O)cc2O[C@@H]1CN(C)Cc1ccncc1", "values": [{"measurement": "cytotoxicity call", "setting": "[1]", "value": "inactive"}, {"measurement": "cytotoxicity call", "setting": "[2]", "value": "inactive"}, {"measurement": "growth inhibition call", "setting": "[3]", "value": "inactive"}]}
{"smiles": "O=C(C[C@H]1C[C@H]2c3cc(NS(=O)(=O)c4ccccc4)ccc3O[C@H]2[C@H](CO)O1)NCC(F)(F)F", "values": [{"measurement": "cytotoxicity call", "setting": "[1]", "value": "inactive"}, {"measurement": "cytotoxicity call", "setting": "[2]", "value": "inactive"}, {"measurement": "growth inhibition call", "setting": "[3]", "value": "inactive"}]}
{"smiles": "CCCC#Cc1cnc2c(c1)C(=O)N([C@@H](C)CO)C[C@@H](C)[C@H](CN(C)S(=O)(=O)c1cccc(OC)c1)O2", "values": [{"measurement": "cytotoxicity call", "setting": "[1]", "value": "inactive"}, {"measurement": "cytotoxicity call", "setting": "[2]", "value": "inactive"}, {"measurement": "growth inhibition call", "setting": "[3]", "value": "inactive"}]}
{"smiles": "CN(C)c1cc(NC(=O)CNC(C)(C)C)c(O)c2c1CC1CC3C(N(C)C)C(O)=C(C(N)=O)C(=O)C3(O)C(O)=C1C2=O", "note": "(configuration not stated)", "values": [{"measurement": "cytotoxicity call", "setting": "[1]", "value": "inactive"}, {"measurement": "cytotoxicity call", "setting": "[2]", "value": "inactive"}, {"measurement": "growth inhibition call", "setting": "[3]", "value": "inactive"}]}
{"smiles": "COc1ccc(NC(=O)Nc2ccc3c(c2)C(=O)N([C@@H](C)CO)C[C@H](C)[C@@H](CN(C)S(=O)(=O)c2ccc(Cl)cc2)OCCCC[C@@H](C)O3)cc1", "values": [{"measurement": "cytotoxicity call", "setting": "[1]", "value": "inactive"}, {"measurement": "cytotoxicity call", "setting": "[2]", "value": "inactive"}, {"measurement": "growth inhibition call", "setting": "[3]", "value": "inactive"}]}
